Usually % Inhibition stands for the change of the read-out against control, counted positive when it falls.

The values that follow come from ChEMBL document CHEMBL5308541, “MAIP: An Open-Source Tool to Enrich High-Throughput Screening Output and Identify Novel, Druglike Molecules with Antimalarial Activity” (ACS Med Chem Lett, 2023).

The campaign covered roughly 150,000 compounds. About 540 (0.36%) showed an effect of 50% or more. The list shows a part of the results.

This test deals with Plasmodium falciparum. Description: Primary screen in NF54 nanoGlo assay, in single point, at 2uM, 72h; a lower Z score goes with more inhibition. The format is functional, Erythrocyte. The settings on record: timepoint 72 hour.
As to `Cc1cc(C)c(CN2CCC[C@@]2(C)C(=O)O)c(C)n1`, the “% Inhibition” value is reported as -17% and the Z score came to 3.34.
`Cc1cnccc1N1CCCN(C(=O)[C@H]2CCCN(C3CCOCC3)C2)CC1`: the “% Inhibition” value is recorded as -4% and the Z score is recorded as 0.89.
For the molecule `COc1ccc2c(O)c(Br)c(C)nc2c1`, the “% Inhibition” value stood at 75% and the Z score is recorded as -13.24.
With `O=C(Nc1nc2ccccc2[nH]1)c1cccc(CNc2ccncn2)c1`, the “% Inhibition” value is -6% and the Z score amounted to 0.98.
The corresponding values for `F[C@H]1C[C@@H](CNCc2ccc3cn[nH]c3c2)N(c2cccnn2)C1` are -18% and 2.71.
Take `Cn1cnc2cc(S(=O)(=O)N3CCC[C@@]3(C)C(=O)O)ccc21`: the “% Inhibition” value was -3% and the Z score came out at 0.46.
Turning to `Cc1cc(C)n2ncc(C(=O)C(c3nc4ccccc4s3)c3nc4ccccc4s3)c2n1`, the “% Inhibition” value is listed as -3% and the Z score is 0.51.
Turning to `Cn1cc(-c2cc(CN3CCC(Nc4cccnn4)CC3)on2)cn1`, the “% Inhibition” value is on record as -4% and the Z score was determined as 0.64.
In the case of `CNC(=O)c1[nH]nc2c1CN(CC(=O)N1CCOc3ccccc31)CC2`, the “% Inhibition” value came out at 3% and the Z score was -0.46.
On to `Clc1ccc(NC2CCN(c3ccncc3)CC2)cc1CN1CCOCC1`, for which the “% Inhibition” value is on record as -2% and the Z score was 0.24.
For the molecule `O=C(C1CCOCC1)N1C[C@H](CNc2ncnc3[nH]ccc23)C2(CCOCC2)C1`, the “% Inhibition” value is given as 6% and the Z score is -1.09.
With `CCCO[C@H]1CCCN(S(=O)(=O)c2ccc(NC(C)=O)c3ccccc23)C1`, the “% Inhibition” value was -9% and the Z score was found to be 1.91.
Regarding `Nc1nc(NCCO)cc(-c2cccc3cnccc23)n1`, the “% Inhibition” value is 2% and the Z score is -0.37.
For `Cc1ccc2nc(CN3CCN(CC4CCN(C)CC4)CC3)cc(O)c2c1`, the “% Inhibition” value was found to be 2% and the Z score is recorded as -0.29.
Take `COc1cccc2c1OCC(CN(C)[C@@H](C)c1ccncc1)=C2`: the “% Inhibition” value is -10% and the Z score is 2.19.
With `OCC1CC(Nc2ncnc3[nH]ccc23)C1` (stereo unspecified), the “% Inhibition” value is 0% and the Z score was -0.02.
For `CN(C(=O)c1cccc(CCC(C)(C)O)c1)C1CC(C)(C)NC(C)(C)C1`, the “% Inhibition” value is reported as -3% and the Z score is 0.64.
The corresponding values for `c1ccc2oc(CCNC3CCN(c4ccc5c(c4)OCO5)CC3)nc2c1` are -14% and 2.38.
As to `CN1CCn2ncc(C(=O)N[C@@H]3C[C@H]3c3ccccc3)c2S1(=O)=O`, the “% Inhibition” value was -4% and the Z score is 0.86.
The corresponding values for `Cc1cccc2c(O)c(C(=O)N[C@H]3CCCN(C4CCN(C)CC4)C3)cnc12` are -8% and 1.74.
Take `Cc1nc(N2CCOCC2)ccc1N[C@@H](C)c1ccccc1OC(F)F`: the “% Inhibition” value is -9% and the Z score was 1.47.
Consider `Oc1cc(CN2CCC3(CC2)CNc2ccccc23)nc2c(Cl)cccc12`, for which the “% Inhibition” value is listed as -17% and the Z score is reported as 2.58.
Turning to `O=C1C[C@H](CNc2ncnc3c2CCNCC3)CN1C1CCCC1`, the “% Inhibition” value was -3% and the Z score stood at 0.44.
